Results from patent publication US20250101135A1 (Hoffmann-La Roche, published 2025).
Substitutions are numbered along the chain they refer to. Values belong to the binder of their own block, whether it stands above or below them.

Tests used:
[1] = molecular target: T1, human 4-1BB (CD137) on cells (human, UniProt Q07011 24-255); test: flow cytometry on activated human PBMC, 4-1BB+ CD4+ T cells
T1 construct: whole, on cells; also called 4-1BB+CD8+; 4-1BB+CD4+

[2] = molecular target: T2, recombinant cynomolgus 4-1BB avi His (cynomolgus, UniProt O95905); test: SPR Biacore T200, construct captured via anti-human Fab, 4-1BB avi His analyte, mean of two runs
T2 construct: also called cy 4-1BB; cy4-1BB

[3] = molecular target: T3, monomeric human 4-1BB avi His (human); test: as above
T3 construct: ectodomain of human 4-1BB with avi and hexahistidine tags; also called hu4-1BB avi His; hu4-1BB

[4] = molecular target: T4, human CD19 on B cell lymphoma and leukemia cell lines (human, UniProt P15391 20-556); test: flow cytometry on Toledo cells
T4 construct: also called SU-DHL-8; Nalm6
T4 sequence: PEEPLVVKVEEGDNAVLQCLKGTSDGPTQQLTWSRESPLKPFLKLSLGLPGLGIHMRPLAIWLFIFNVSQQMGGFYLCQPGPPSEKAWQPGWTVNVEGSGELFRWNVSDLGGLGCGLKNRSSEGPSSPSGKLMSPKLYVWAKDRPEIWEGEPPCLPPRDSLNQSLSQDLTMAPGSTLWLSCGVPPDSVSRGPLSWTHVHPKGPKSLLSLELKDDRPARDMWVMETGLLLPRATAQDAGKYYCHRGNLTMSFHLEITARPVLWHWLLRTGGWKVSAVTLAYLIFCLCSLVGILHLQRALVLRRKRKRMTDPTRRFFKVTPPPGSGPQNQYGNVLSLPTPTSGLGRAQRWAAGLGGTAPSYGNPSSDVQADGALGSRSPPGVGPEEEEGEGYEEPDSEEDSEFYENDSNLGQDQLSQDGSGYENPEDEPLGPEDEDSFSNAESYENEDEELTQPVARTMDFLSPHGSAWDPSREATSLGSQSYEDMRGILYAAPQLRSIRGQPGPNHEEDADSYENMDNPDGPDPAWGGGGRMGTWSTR

[5] = molecular target: T4, human CD19 on B cell lymphoma and …; test: flow cytometry on SU-DHL-8 cells
[6] = molecular target: T1, human 4-1BB (CD137) on cells; test: flow cytometry on activated human PBMC, 4-1BB+ CD8+ T cells
[7] = molecular target: T4, human CD19 on B cell lymphoma and …; test: flow cytometry on Nalm6 cells
[8] = molecular target: T4, human CD19 on B cell lymphoma and …; test: flow cytometry on OCI-Ly18 cells

- EC50 [1]: 2.04 nM
- Kd [2]: 110 nM
- koff [2]: 0.013 s⁻¹
- kon [2]: 120000 M⁻¹ s⁻¹
- Kd [3]: 340 nM
- koff [3]: 0.025 s⁻¹
- kon [3]: 72000 M⁻¹ s⁻¹
- EC50 [4]: 0.29 nM
- EC50 [5]: 0.31 nM
- EC50 [6]: 0.15 nM
- EC50 [7]: 0.39 nM
- EC50 [8]: 0.26 nM
B1: monovalent CD19(8B8-018) targeted split trimeric 4-1BB ligand (71-248) Fc (kih) fusion containing CH-CL cross with charged residues (construct 3.4) (Fc fusion)
chain 1: REGPELSPDDPAGLLDLRQGMFAQLVAQNVLLIDGPLSWYSDPGLAGVSLTGGLSYKEDTKELVVAKAGVYYVFFQLELRRVVAGEGSGSVSLALHLQPLRSAAGAAALALTVDLPPASSEARNSAFGFQGRLLHLSAGQRLGVHLHTEARARHAWQLTQGATVLGLFRVTPEIPAGLGGGGSGGGGSREGPELSPDDPAGLLDLRQGMFAQLVAQNVLLIDGPLSWYSDPGLAGVSLTGGLSYKEDTKELVVAKAGVYYVFFQLELRRVVAGEGSGSVSLALHLQPLRSAAGAAALALTVDLPPASSEARNSAFGFQGRLLHLSAGQRLGVHLHTEARARHAWQLTQGATVLGLFRVTPEIPAGLGGGGSGGGGSRTVAAPSVFIFPPSDRKLKSGTASVVCLLNNFYPREAKVQWKVDNALQSGNSQESVTEQDSKDSTYSLSSTLTLSKADYEKHKVYACEVTHQGLSSPVTKSFNRGE[no letters for human IgG1 Fc with changes]
chain 2: REGPELSPDDPAGLLDLRQGMFAQLVAQNVLLIDGPLSWYSDPGLAGVSLTGGLSYKEDTKELVVAKAGVYYVFFQLELRRVVAGEGSGSVSLALHLQPLRSAAGAAALALTVDLPPASSEARNSAFGFQGRLLHLSAGQRLGVHLHTEARARHAWQLTQGATVLGLFRVTPEIPAGLGGGGSGGGGSASTKGPSVFPLAPSSKSTSGGTAALGCLVEDYFPEPVTVSWNSGALTSGVHTFPAVLQSSGLYSLSSVVTVPSSSLGTQTYICNVNHKPSNTKVDEKVEPKSC
heavy: QVQLVQSGAEVKKPGASVKVSCKASGYTFTDYIMHWVRQAPGQGLEWMGYINPYNDGSKYTEKFQGRVTMTSDTSISTAYMELSRLRSDDTAVYYCARGTYYYGSALFDYWGQGTTVTVSSASTKGPSVFPLAPSSKSTSGGTAALGCLVKDYFPEPVTVSWNSGALTSGVHTFPAVLQSSGLYSLSSVVTVPSSSLGTQTYICNVNHKPSNTKVDKKVEPKSCDKTHTCPPCPAPEAAGGPSVFLFPPKPKDTLMISRTPEVTCVVVDVSHEDPEVKFNWYVDGVEVHNAKTKPREEQYNSTYRVVSVLTVLHQDWLNGKEYKCKVSNKALGAPIEKTISKAKGQPREPQVCTLPPSRDELTKNQVSLSCAVKGFYPSDIAVEWESNGQPENNYKTTPPVLDSDGSFFLVSKLTVDKSRWQQGNVFSCSVMHEALHNHYTQKSLSLSPGK
light: DIVMTQTPLSLSVTPGQPASISCKSSQSLENPNGNTYLNWYLQKPGQSPQLLIYRVSKRFSGVPDRFSGSGSGTDFTLKISRVEAEDVGVYYCLQLTHVPYTFGQGTKLEIKRTVAAPSVFIFPPSDEQLKSGTASVVCLLNNFYPREAKVQWKVDNALQSGNSQESVTEQDSKDSTYSLSSTLTLSKADYEKHKVYACEVTHQGLSSPVTKSFNRGEC

- EC50 [1]: 0.29 nM
- EC50 [4]: 0.1 nM
- EC50 [5]: 0.15 nM
- EC50 [6]: 0.01 nM
- EC50 [7]: 0.14 nM
- EC50 [8]: 0.09 nM
B2: bivalent CD19(8B8-018) targeted split trimeric 4-1BB ligand (71-254) Fc (kih) fusion (construct 3.3) (Fc fusion)
heavy 1: QVQLVQSGAEVKKPGASVKVSCKASGYTFTDYIMHWVRQAPGQGLEWMGYINPYNDGSKYTEKFQGRVTMTSDTSISTAYMELSRLRSDDTAVYYCARGTYYYGSALFDYWGQGTTVTVSSASTKGPSVFPLAPSSKSTSGGTAALGCLVKDYFPEPVTVSWNSGALTSGVHTFPAVLQSSGLYSLSSVVTVPSSSLGTQTYICNVNHKPSNTKVDKKVEPKSCDKTHTCPPCPAPEAAGGPSVFLFPPKPKDTLMISRTPEVTCVVVDVSHEDPEVKFNWYVDGVEVHNAKTKPREEQYNSTYRVVSVLTVLHQDWLNGKEYKCKVSNKALGAPIEKTISKAKGQPREPQVCTLPPSRDELTKNQVSLSCAVKGFYPSDIAVEWESNGQPENNYKTTPPVLDSDGSFFLVSKLTVDKSRWQQGNVFSCSVMHEALHNHYTQKSLSLSPGGGGGSGGGGSREGPELSPDDPAGLLDLRQGMFAQLVAQNVLLIDGPLSWYSDPGLAGVSLTGGLSYKEDTKELVVAKAGVYYVFFQLELRRVVAGEGSGSVSLALHLQPLRSAAGAAALALTVDLPPASSEARNSAFGFQGRLLHLSAGQRLGVHLHTEARARHAWQLTQGATVLGLFRVTPEIPAGLPSPRSEGGGGSGGGGSREGPELSPDDPAGLLDLRQGMFAQLVAQNVLLIDGPLSWYSDPGLAGVSLTGGLSYKEDTKELVVAKAGVYYVFFQLELRRVVAGEGSGSVSLALHLQPLRSAAGAAALALTVDLPPASSEARNSAFGFQGRLLHLSAGQRLGVHLHTEARARHAWQLTQGATVLGLFRVTPEIPAGLPSPRSE
heavy 2: QVQLVQSGAEVKKPGASVKVSCKASGYTFTDYIMHWVRQAPGQGLEWMGYINPYNDGSKYTEKFQGRVTMTSDTSISTAYMELSRLRSDDTAVYYCARGTYYYGSALFDYWGQGTTVTVSSASTKGPSVFPLAPSSKSTSGGTAALGCLVKDYFPEPVTVSWNSGALTSGVHTFPAVLQSSGLYSLSSVVTVPSSSLGTQTYICNVNHKPSNTKVDKKV[no letters for human IgG1 Fc with changes]GGGGSGGGGSREGPELSPDDPAGLLDLRQGMFAQLVAQNVLLIDGPLSWYSDPGLAGVSLTGGLSYKEDTKELVVAKAGVYYVFFQLELRRVVAGEGSGSVSLALHLQPLRSAAGAAALALTVDLPPASSEARNSAFGFQGRLLHLSAGQRLGVHLHTEARARHAWQLTQGATVLGLFRVTPEIPAGLPSPRSE
light: B1 light

- EC50 [1]: 1.03 nM
- EC50 [4]: 0.27 nM
- EC50 [5]: 0.54 nM
- EC50 [6]: 0.04 nM
- EC50 [7]: 0.43 nM
- EC50 [8]: 0.31 nM
B3: monovalent CD19(8B8-018) targeted split trimeric 4-1BB ligand (71-248) Fc (kih) fusion containing CH-CL cross without charged residues (construct 3.5) (Fc fusion)
chain 1: REGPELSPDDPAGLLDLRQGMFAQLVAQNVLLIDGPLSWYSDPGLAGVSLTGGLSYKEDTKELVVAKAGVYYVFFQLELRRVVAGEGSGSVSLALHLQPLRSAAGAAALALTVDLPPASSEARNSAFGFQGRLLHLSAGQRLGVHLHTEARARHAWQLTQGATVLGLFRVTPEIPAGLGGGGSGGGGSREGPELSPDDPAGLLDLRQGMFAQLVAQNVLLIDGPLSWYSDPGLAGVSLTGGLSYKEDTKELVVAKAGVYYVFFQLELRRVVAGEGSGSVSLALHLQPLRSAAGAAALALTVDLPPASSEARNSAFGFQGRLLHLSAGQRLGVHLHTEARARHAWQLTQGATVLGLFRVTPEIPAGLGGGGSGGGGSRTVAAPSVFIFPPSDEQLKSGTASVVCLLNNFYPREAKVQWKVDNALQSGNSQESVTEQDSKDSTYSLSSTLTLSKADYEKHKVYACEVTHQGLSSPVTKSFNRGE[no letters for human IgG1 Fc with changes]
chain 2: B1 chain 2 with E218K, E284K
heavy: B1 heavy
light: B1 light
